From PubChem BioAssay AID463173 (ICCB-Longwood Screening Facility, Harvard Medical School, 2010)
Hit rate of the full screen: of about 52,000 compounds, about 4,300 (8.3%) were called active. Cut-off read from the data, not from the text of the source: active = survival mostly below about 52% (no sharp cut-off); inactive = mostly above about 56%. This is one part of the list.

System: DeltatarO mutant
Assay: S. aureus survival, RN4220 and DeltatarO strains – OD600, teichoic acid synthesis inhibitors, primary screen (AID 463173)
Settings: S. aureus RN4220 wild type/DeltatarO growth, OD600, 18 h, active compounds read low, screened at 18.75 µg/mL (by protocol)

Q: With `COc1ccccc1CNc1nc(-c2ccco2)nn1C(=O)c1ccccc1[N+](=O)[O-]` as the compound, how does the survival read?
A: The survival was inactive: 62%.

Q: For `c1ccc(CCNc2ccccc2)cc1`, which survival is on record?
A: Its survival is inactive: 84%.

Q: How did the survival turn out when `COc1cccc(CNC(=O)Cn2cc3c(n2)-c2c(oc(C(=O)N4CCOCC4)c2C)CC3)c1` was run?
A: Its survival is inactive: 74%.

Q: `COc1ccc(S(=O)(=O)N2Cc3ccccc3CC2C(=O)Nc2cccc(C)c2)cc1OC` (stereo unspecified) was tested. Which survival did it give?
A: The survival was inactive: 71%.

Q: How did the survival turn out when `CCOC(=O)c1sc(NC(=O)c2nc(SCC)ncc2Cl)c(C(=O)OCC)c1C` was run?
A: The survival was inactive: 115%.

Q: How did the survival turn out when `CN(C)CCNC(=O)Cc1ccc(NC(=O)N2CCCCc3ccccc32)cc1` was run?
A: Its survival is inactive: 86%.

Q: `Cc1nn(Cc2ccccc2)c(C)c1NC(=O)c1cc(C(C)C)on1` was tested. Which survival did it give?
A: The survival was inactive: 56%.

Q: For `CC(Sc1nnc(-c2ccc3c(c2)OCO3)o1)C(N)=O` (stereo unspecified), which survival is on record?
A: The survival was inactive: 96%.

Q: Which survival does the source give for `Cc1ccc(C(=O)c2cn(Cc3ccc(F)cc3)c3nc(C)ccc3c2=O)cc1` here?
A: Its survival is inactive: 85%.

Q: How did the survival turn out when `COc1ccc(Cl)cc1NC(=O)c1c(C(=O)Nc2cccc(C)c2C)sc2nc(C)cc(=O)n12` was run?
A: Its survival is inactive: 74%.

Q: With `CCOC(=O)c1cc(-c2ccc(C)cc2)n(CC(=O)Nc2cccc(C(C)=O)c2)c1C` as the compound, how does the survival read?
A: The survival was inactive: 94%.

Q: `CNCCCc1cc(C)ccc1O` was tested. Which survival did it give?
A: The survival was inactive: 59%.

Q: For `COC(=O)c1ccc(CSc2nc3c([nH]c4ccccc43)c(=O)n2-c2cccc(OC)c2)o1`, which survival is on record?
A: Its survival is inactive: 55%.

Q: `COc1ccc(-c2nc3ccccc3o2)cc1NC(=O)c1ccc(N2CCC(C)CC2)c([N+](=O)[O-])c1` was tested. Which survival did it give?
A: Its survival is inactive: 66%.

Q: `COc1ccc(CNC(=O)c2cc3c(=O)n(Cc4cccs4)ccc3nc2C)cc1` was tested. Which survival did it give?
A: Its survival is active: 37%.

Q: `COc1ccccc1N1CCN(C(=O)CCSCc2ccccc2F)CC1` was tested. Which survival did it give?
A: Its survival is inactive: 95%.

Q: How did the survival turn out when `Cc1oc(-c2ccccc2F)nc1Cn1c(SCc2ccccc2F)nc2ccncc21` was run?
A: The survival was inactive: 68%.

Q: Which survival does the source give for `Cc1ccccc1OCc1nc2c3cnn(-c4ccccc4Br)c3ncn2n1` here?
A: Its survival is inactive: 70%.

Q: Which survival does the source give for `COc1ccc(Nc2oc(/C=C/c3ccc(F)cc3)nc2C#N)cc1` here?
A: Its survival is inactive: 93%.

Q: With `COc1ccc(OCc2nnc(SCC(=O)N3C(C)CCCC3C)o2)cc1` (stereo unspecified) as the compound, how does the survival read?
A: Its survival is inactive: 87%.

Q: `COCCCn1c(=N)c(S(=O)(=O)c2ccccc2)cc2c(=O)n3cccc(C)c3nc21` was tested. Which survival did it give?
A: Its survival is inactive: 77%.

Q: For `COc1ccccc1OCC(O)CN1CCOCC1` (stereo unspecified), which survival is on record?
A: Its survival is inactive: 95%.

Q: For `CC1(C)CC(=O)c2cc(C(=O)Nc3ccc(Br)cc3)c(=O)n(-c3ccc(Cl)cc3)c2C1`, which survival is on record?
A: Its survival is active: 42%.

Q: `O=C(O)CN1C(=O)/C(=C\c2ccccc2)SC1=S` was tested. Which survival did it give?
A: The survival was inactive: 91%.

Q: `COc1ccc(CCNC(=O)c2cc3c(=O)n(C)c4cc(Cl)ccc4c3s2)cc1OC` was tested. Which survival did it give?
A: The survival was inactive: 80%.

Q: Which survival does the source give for `COc1ccc(-c2[nH]c(-c3ccccc3)nc2SCC(=O)NC2CCCC2)cc1` here?
A: Its survival is inactive: 67%.
